Measured values taken from paper PMC6642173, “Acetylation regulates ribonucleotide reductase activity and cancer cell growth” (Nature Communications, 2019).
Where two headings read alike, the source gives them in different places. No constants are given. Whether binding was seen depends on the method and setting. Binding seen in cells or lysates may run through a third protein. Some binding calls cover weakened binding; strength is not graded here. For part of these data: Tags and fused reporters may be left off the sequences shown. One block for each molecule: values may come before it.

Chains of the proteins cited; added tags and fusions are not shown. Residues count along the entry.
UniProt Q8N6T7: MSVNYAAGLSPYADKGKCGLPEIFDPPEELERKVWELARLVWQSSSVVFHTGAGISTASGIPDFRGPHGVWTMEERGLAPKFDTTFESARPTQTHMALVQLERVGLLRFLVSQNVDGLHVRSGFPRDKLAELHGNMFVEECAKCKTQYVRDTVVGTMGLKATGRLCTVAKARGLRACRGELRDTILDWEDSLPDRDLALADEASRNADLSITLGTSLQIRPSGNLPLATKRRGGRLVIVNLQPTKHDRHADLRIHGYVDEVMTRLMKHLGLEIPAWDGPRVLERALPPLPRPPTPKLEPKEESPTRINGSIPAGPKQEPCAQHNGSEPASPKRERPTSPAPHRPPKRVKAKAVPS
UniProt Q96EB6: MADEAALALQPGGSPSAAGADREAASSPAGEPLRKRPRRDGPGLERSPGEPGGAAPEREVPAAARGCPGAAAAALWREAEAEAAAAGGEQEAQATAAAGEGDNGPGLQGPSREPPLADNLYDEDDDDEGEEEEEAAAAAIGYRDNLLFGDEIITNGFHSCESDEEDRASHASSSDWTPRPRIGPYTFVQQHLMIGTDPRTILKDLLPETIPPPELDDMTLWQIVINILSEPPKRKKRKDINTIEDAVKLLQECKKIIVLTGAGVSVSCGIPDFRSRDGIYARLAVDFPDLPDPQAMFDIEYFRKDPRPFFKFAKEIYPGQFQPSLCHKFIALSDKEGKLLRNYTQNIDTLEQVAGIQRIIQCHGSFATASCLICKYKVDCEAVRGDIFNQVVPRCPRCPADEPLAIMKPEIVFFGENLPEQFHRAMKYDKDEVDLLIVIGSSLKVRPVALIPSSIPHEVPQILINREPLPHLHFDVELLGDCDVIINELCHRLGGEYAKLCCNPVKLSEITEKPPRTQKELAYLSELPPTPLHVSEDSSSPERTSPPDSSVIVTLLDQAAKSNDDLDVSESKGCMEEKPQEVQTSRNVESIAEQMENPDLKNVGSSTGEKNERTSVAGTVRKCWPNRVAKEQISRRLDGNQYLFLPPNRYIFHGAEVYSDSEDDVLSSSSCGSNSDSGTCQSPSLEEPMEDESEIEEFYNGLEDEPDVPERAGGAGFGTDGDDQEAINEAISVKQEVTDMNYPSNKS
UniProt Q9NXA8, residues 37-310: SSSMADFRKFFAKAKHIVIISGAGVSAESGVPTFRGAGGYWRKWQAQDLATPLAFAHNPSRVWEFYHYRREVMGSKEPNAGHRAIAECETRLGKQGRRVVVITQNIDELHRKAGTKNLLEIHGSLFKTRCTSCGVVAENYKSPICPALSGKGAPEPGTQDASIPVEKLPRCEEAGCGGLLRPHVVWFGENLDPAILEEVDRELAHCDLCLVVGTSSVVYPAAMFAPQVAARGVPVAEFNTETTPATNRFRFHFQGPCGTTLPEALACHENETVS
UniProt O95251: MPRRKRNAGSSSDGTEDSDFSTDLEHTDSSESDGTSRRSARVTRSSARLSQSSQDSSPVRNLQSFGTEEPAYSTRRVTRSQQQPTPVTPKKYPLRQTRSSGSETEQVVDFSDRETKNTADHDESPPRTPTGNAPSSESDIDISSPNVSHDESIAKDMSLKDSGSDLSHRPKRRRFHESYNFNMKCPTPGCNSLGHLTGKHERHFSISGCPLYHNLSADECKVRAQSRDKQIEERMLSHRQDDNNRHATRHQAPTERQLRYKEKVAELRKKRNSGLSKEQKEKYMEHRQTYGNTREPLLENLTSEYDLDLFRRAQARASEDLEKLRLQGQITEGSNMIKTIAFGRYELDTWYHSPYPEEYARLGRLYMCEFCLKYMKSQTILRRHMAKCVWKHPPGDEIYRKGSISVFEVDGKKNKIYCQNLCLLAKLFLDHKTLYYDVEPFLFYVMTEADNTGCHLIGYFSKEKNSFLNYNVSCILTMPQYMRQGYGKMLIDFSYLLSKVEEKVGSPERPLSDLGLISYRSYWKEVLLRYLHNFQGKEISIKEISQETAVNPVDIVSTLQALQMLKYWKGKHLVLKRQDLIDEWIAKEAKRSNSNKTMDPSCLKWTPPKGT
UniProt Q13535: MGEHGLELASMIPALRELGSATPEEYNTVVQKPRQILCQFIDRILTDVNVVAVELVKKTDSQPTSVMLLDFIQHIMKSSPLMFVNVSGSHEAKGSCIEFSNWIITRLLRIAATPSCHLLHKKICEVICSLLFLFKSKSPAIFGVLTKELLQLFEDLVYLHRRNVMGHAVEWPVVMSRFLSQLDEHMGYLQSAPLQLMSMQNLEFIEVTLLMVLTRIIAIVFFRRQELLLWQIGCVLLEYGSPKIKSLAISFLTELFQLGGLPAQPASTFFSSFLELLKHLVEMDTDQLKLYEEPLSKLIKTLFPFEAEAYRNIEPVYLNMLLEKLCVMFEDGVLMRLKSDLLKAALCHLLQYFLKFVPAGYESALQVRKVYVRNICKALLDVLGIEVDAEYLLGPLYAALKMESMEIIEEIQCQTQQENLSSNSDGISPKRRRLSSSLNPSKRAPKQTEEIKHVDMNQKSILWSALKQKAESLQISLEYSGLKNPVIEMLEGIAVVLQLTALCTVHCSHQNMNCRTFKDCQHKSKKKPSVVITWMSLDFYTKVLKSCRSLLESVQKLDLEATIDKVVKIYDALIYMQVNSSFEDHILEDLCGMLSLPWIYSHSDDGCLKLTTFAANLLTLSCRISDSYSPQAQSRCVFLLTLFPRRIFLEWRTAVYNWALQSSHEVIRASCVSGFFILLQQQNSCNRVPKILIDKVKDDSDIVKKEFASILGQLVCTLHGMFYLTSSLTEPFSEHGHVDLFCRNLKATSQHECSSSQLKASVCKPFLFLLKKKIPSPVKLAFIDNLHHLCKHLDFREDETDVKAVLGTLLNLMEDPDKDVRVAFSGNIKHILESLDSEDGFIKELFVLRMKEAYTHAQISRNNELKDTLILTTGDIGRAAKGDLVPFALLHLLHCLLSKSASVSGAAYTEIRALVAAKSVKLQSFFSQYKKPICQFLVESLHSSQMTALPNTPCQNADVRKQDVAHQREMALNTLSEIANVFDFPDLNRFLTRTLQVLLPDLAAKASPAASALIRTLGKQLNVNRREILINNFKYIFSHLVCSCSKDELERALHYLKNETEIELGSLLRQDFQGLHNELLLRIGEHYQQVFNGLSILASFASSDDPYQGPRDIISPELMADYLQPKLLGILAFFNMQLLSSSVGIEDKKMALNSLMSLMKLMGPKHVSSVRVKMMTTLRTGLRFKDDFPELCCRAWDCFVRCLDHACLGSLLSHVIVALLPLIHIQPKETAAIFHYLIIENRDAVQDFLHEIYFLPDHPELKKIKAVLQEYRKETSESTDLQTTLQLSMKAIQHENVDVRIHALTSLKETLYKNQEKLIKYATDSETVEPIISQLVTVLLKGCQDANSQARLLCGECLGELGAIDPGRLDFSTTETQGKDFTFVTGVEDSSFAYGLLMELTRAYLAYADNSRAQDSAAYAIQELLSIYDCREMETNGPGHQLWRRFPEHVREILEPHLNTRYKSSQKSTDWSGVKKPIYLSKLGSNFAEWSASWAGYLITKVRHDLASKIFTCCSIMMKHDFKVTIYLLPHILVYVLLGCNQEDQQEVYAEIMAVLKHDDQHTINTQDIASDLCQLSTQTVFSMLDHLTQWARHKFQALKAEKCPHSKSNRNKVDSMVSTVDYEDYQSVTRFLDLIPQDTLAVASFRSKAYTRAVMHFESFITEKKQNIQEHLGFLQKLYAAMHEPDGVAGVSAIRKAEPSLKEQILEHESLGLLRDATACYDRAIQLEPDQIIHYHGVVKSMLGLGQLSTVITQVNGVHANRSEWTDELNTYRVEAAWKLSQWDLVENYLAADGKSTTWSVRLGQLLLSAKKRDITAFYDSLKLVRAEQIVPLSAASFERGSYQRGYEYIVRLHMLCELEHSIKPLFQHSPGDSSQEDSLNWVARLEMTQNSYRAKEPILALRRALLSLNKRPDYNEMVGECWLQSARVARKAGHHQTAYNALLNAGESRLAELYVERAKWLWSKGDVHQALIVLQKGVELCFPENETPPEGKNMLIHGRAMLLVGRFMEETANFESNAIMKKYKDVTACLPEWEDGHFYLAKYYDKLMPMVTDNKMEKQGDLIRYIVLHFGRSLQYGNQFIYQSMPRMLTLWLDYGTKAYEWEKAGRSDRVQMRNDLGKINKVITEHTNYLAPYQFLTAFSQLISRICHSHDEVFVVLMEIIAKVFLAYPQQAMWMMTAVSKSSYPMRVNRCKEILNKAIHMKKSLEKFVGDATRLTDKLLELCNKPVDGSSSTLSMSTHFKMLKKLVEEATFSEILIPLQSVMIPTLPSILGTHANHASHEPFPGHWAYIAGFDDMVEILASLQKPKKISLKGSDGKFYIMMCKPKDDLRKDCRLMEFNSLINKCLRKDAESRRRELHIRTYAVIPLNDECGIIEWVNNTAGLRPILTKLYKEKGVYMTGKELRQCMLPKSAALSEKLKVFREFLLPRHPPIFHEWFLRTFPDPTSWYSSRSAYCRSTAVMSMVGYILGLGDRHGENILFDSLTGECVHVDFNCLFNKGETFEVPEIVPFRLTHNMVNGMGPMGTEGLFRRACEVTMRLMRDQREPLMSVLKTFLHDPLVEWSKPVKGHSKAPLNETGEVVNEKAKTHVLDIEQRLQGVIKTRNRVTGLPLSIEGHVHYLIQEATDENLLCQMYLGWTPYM

Assays:
[1] = target: T1, Endogenous RRM2 (human (endogenous in H1299)) (UniProt P31350); assay: co-IP; endogenous proteins in H1299 cells; IP with RRM2 antibody, western blot of the associated protein
T1 sequence: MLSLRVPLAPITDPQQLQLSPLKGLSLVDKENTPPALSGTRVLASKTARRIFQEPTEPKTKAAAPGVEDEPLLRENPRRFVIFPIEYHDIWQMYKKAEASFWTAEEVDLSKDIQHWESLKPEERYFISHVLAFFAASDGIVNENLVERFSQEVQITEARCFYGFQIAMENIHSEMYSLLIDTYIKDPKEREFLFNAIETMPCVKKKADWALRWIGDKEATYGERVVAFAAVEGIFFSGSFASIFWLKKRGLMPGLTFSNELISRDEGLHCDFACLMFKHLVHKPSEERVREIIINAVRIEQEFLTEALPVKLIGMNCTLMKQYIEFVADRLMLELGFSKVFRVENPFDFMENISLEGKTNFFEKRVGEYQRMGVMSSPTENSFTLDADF

[2] = target: T2, Flag-tagged WT RRM2 (human) (UniProt P31350); assay: co-IP; H1299 cells co-transfected with Flag-RRM2 and HA-KAT7; precipitating antibody not told
T2 sequence: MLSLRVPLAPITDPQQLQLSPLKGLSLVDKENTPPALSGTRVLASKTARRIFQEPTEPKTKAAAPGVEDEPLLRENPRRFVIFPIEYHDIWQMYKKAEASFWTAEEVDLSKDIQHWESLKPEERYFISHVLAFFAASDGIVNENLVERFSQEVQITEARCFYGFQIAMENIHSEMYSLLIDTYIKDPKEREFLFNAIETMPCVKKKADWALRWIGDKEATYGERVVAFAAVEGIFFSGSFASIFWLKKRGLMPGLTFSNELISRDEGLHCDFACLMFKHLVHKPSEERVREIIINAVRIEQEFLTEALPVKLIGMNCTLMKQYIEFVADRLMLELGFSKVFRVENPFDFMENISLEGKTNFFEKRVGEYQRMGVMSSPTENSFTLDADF

[3] = target: T2, Flag-tagged WT RRM2 (human); assay: co-IP; H1299 cells co-transfected with HA-RRM2 and a Flag-tagged partner (Flag-RRM2 variants or Flag-Sirt1-7); IP with Flag antibody, western blot with anti-HA and anti-Flag
Flag-tagged Sirt6 = Flag-tagged Sirt6 (UniProt Q8N6T7); assay: as above
Flag-tagged Sirt2 WT [4] = target: T3, Flag-tagged Sirt2 WT (UniProt Q8IXJ6); assay: as above
T3 sequence: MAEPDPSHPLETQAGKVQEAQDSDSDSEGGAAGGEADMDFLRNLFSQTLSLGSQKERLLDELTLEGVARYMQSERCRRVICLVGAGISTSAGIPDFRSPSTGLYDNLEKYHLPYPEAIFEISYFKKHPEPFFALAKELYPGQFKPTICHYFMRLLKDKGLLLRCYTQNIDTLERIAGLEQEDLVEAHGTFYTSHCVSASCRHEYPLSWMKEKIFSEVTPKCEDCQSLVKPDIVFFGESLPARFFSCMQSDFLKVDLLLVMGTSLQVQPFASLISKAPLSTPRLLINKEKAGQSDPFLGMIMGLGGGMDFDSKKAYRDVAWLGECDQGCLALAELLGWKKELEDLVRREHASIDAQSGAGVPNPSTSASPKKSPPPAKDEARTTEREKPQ

Flag-tagged Sirt4 = target: T4, Flag-tagged Sirt4 (UniProt Q9Y6E7); assay: as above
T4 sequence: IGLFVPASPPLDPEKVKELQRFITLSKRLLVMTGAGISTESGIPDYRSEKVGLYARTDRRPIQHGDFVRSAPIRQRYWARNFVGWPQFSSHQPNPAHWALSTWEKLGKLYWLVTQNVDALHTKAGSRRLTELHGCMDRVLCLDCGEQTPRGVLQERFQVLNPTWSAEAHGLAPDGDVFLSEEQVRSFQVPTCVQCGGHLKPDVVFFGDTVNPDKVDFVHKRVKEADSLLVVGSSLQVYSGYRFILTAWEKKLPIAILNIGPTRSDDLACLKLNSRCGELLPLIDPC

[5] = target: T5, Flag-tagged RRM2 K30Q acetyl-mimetic mutant (human) (UniProt P31350); assay: as above
T5 sequence: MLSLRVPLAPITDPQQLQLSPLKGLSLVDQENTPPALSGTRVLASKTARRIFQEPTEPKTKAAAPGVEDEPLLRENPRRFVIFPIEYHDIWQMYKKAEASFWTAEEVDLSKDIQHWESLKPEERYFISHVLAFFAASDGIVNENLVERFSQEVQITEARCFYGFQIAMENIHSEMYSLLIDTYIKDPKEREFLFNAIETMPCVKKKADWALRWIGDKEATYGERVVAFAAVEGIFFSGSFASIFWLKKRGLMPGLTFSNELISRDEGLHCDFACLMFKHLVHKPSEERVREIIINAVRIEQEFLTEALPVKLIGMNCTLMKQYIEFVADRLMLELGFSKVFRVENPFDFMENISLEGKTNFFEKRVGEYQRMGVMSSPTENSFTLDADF

Flag-tagged Sirt1 = Flag-tagged Sirt1 (UniProt Q96EB6); assay: as above
Flag-tagged Sirt5 = Flag-tagged Sirt5 (UniProt Q9NXA8); assay: as above
[6] = target: T6, Flag-tagged RRM2 K283Q acetyl-mimetic mutant (human) (UniProt P31350); assay: as above
T6 sequence: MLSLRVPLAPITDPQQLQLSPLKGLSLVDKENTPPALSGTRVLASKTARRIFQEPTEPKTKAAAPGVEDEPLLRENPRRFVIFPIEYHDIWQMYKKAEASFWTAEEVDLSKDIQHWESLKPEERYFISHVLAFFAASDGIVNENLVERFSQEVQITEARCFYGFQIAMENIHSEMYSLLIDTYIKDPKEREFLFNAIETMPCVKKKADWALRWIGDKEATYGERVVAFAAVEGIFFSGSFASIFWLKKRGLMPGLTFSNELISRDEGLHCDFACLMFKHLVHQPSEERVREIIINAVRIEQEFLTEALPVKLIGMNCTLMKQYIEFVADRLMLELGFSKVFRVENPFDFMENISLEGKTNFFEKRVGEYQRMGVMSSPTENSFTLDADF

[7] = target: T7, Flag-tagged RRM2 K61Q acetyl-mimetic mutant (human) (UniProt P31350); assay: as above
T7 sequence: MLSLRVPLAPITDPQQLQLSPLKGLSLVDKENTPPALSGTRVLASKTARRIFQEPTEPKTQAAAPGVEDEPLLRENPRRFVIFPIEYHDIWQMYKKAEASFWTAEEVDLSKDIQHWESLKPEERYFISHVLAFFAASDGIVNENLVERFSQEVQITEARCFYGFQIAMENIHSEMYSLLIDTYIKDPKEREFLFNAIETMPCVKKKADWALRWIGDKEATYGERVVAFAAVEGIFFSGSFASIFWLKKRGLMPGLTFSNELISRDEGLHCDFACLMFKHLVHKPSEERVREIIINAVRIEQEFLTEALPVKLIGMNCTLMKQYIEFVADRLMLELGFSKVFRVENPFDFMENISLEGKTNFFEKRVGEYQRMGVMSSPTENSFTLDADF

Flag-tagged Sirt2 WT [8] = target: T3, Flag-tagged Sirt2 WT; assay: co-IP; H1299 cells co-transfected with Flag-Sirt2 and HA-tagged WT, S150A or S150E RRM2; analysis of HA-RRM2/Flag-Sirt2 binding, precipitating antibody not told
Flag-tagged Sirt2 WT [9] = target: T3, Flag-tagged Sirt2 WT; assay: co-IP; H1299 cells expressing exogenous Flag-Sirt2, treated with IR or CPT; IP with Flag antibody, western blot with RRM2 antibody
[10] = target: T1, Endogenous RRM2 (human (endogenous in H1299)); assay: co-IP; endogenous proteins in H1299 cells; IP with RRM2 antibody, western blot of the associated protein; remark: listed apart in the source

Molecule: Endogenous KAT7 (from UniProt O95251 1-611) (enzyme)
binding [1]: binds

Molecule: Endogenous ATR (from UniProt Q13535 1-2644) (enzyme)
binding [1]: binds

B3: Endogenous RRM2 (protein, UniProt P31350 1-389)
chain: MLSLRVPLAPITDPQQLQLSPLKGLSLVDKENTPPALSGTRVLASKTARRIFQEPTEPKTKAAAPGVEDEPLLRENPRRFVIFPIEYHDIWQMYKKAEASFWTAEEVDLSKDIQHWESLKPEERYFISHVLAFFAASDGIVNENLVERFSQEVQITEARCFYGFQIAMENIHSEMYSLLIDTYIKDPKEREFLFNAIETMPCVKKKADWALRWIGDKEATYGERVVAFAAVEGIFFSGSFASIFWLKKRGLMPGLTFSNELISRDEGLHCDFACLMFKHLVHKPSEERVREIIINAVRIEQEFLTEALPVKLIGMNCTLMKQYIEFVADRLMLELGFSKVFRVENPFDFMENISLEGKTNFFEKRVGEYQRMGVMSSPTENSFTLDADF
binding (Flag-tagged Sirt2 WT [9]): binds

Results, then the molecule that gave them:

binding [2]: binds
Molecule: HA-KAT7 (from UniProt O95251 1-611) (enzyme)

binding [3]: binds
binding (Flag-tagged Sirt6): no binding
binding (Flag-tagged Sirt2 WT [4]): binds
binding (Flag-tagged Sirt4): no binding
binding [5]: binds
binding (Flag-tagged Sirt1): no binding
binding (Flag-tagged Sirt5): no binding
binding [6]: binds
binding [7]: binds
B1: HA-tagged WT RRM2 (protein, UniProt P31350 1-389)
chain: MLSLRVPLAPITDPQQLQLSPLKGLSLVDKENTPPALSGTRVLASKTARRIFQEPTEPKTKAAAPGVEDEPLLRENPRRFVIFPIEYHDIWQMYKKAEASFWTAEEVDLSKDIQHWESLKPEERYFISHVLAFFAASDGIVNENLVERFSQEVQITEARCFYGFQIAMENIHSEMYSLLIDTYIKDPKEREFLFNAIETMPCVKKKADWALRWIGDKEATYGERVVAFAAVEGIFFSGSFASIFWLKKRGLMPGLTFSNELISRDEGLHCDFACLMFKHLVHKPSEERVREIIINAVRIEQEFLTEALPVKLIGMNCTLMKQYIEFVADRLMLELGFSKVFRVENPFDFMENISLEGKTNFFEKRVGEYQRMGVMSSPTENSFTLDADF

binding (Flag-tagged Sirt2 WT [8]): binds
B2: HA-tagged RRM2 S150E phosphomimetic mutant (protein, UniProt P31350 1-389)
chain: MLSLRVPLAPITDPQQLQLSPLKGLSLVDKENTPPALSGTRVLASKTARRIFQEPTEPKTKAAAPGVEDEPLLRENPRRFVIFPIEYHDIWQMYKKAEASFWTAEEVDLSKDIQHWESLKPEERYFISHVLAFFAASDGIVNENLVERFEQEVQITEARCFYGFQIAMENIHSEMYSLLIDTYIKDPKEREFLFNAIETMPCVKKKADWALRWIGDKEATYGERVVAFAAVEGIFFSGSFASIFWLKKRGLMPGLTFSNELISRDEGLHCDFACLMFKHLVHKPSEERVREIIINAVRIEQEFLTEALPVKLIGMNCTLMKQYIEFVADRLMLELGFSKVFRVENPFDFMENISLEGKTNFFEKRVGEYQRMGVMSSPTENSFTLDADF

binding [10]: binds
B4: Endogenous Sirt2 (enzyme, UniProt Q8IXJ6 1-389)
chain: MAEPDPSHPLETQAGKVQEAQDSDSDSEGGAAGGEADMDFLRNLFSQTLSLGSQKERLLDELTLEGVARYMQSERCRRVICLVGAGISTSAGIPDFRSPSTGLYDNLEKYHLPYPEAIFEISYFKKHPEPFFALAKELYPGQFKPTICHYFMRLLKDKGLLLRCYTQNIDTLERIAGLEQEDLVEAHGTFYTSHCVSASCRHEYPLSWMKEKIFSEVTPKCEDCQSLVKPDIVFFGESLPARFFSCMQSDFLKVDLLLVMGTSLQVQPFASLISKAPLSTPRLLINKEKAGQSDPFLGMIMGLGGGMDFDSKKAYRDVAWLGECDQGCLALAELLGWKKELEDLVRREHASIDAQSGAGVPNPSTSASPKKSPPPAKDEARTTEREKPQ
